Results taken from the supplement of paper PMC7826260.
The other results are listed elsewhere or left out. The data describe in vitro nicking of single-stranded DNA by Rep domains at 3 µM enzyme and 37 °C for 1 h; the strands have 90 letters, of which the middle is given. Values are log2 of uncut reads against the no-enzyme pool; more negative means more cut, near 0 not cut, and no call is made. Shares of all reads are compared; where an enzyme cuts many sequences, the uncut ones exceed 0.

The sequences below were run on T1, Rep nickase domain of tomato golden mosaic virus (assay: uncleaved DNA left, log2 of reads against the no-enzyme library (log2 ratio); higher = less cleavage (more negative = more Rep cleavage of the k-mer); sequences stand for … in CTCGTCCG…ACCGGAGA).
T1 sequence (residues 1-124, tag not shown): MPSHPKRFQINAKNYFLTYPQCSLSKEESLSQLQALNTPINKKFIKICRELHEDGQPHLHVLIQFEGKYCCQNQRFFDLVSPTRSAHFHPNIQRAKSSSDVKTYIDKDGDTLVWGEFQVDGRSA
Procedure: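 A pool of 90-nt single-stranded DNAs with seven random bases just before the constant AC of the nick site (name = the seven bases) was cut by 3 µM recombinant His6-SUMO-tagged Rep nickase domain (300 nM DNA, 50 mM HEPES pH 8.0, 50 mM NaCl, 1 mM MnCl2, 1 h, 37 °C, three replicates). Uncut DNA was amplified and sequenced.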

| Sequence | uncleaved DNA left (log2) |
| --- | --- |
| CCAAATG | -0.0211 |
| GACGAAC | -0.111 |
| CCTTAAG | 0.0939 |
| CGTCTGA | -0.0993 |
| AGCTCGG | 0.184 |
| GTCGCGA | -0.00119 |
| CTCTGCG | 0.0271 |
| GGCGATT | 0.0431 |
| CTTGCCT | -0.000844 |
| CTTATCT | -0.157 |
| CGCATCG | -0.11 |
| CTAACGT | 0.0879 |
| TCATAAG | 0.0458 |
| GTTTAAT | 0.0551 |
| CAATATC | -2.55 |
| AACCTCA | -0.0956 |
| ATGAACC | -0.0141 |
| CGTGGGG | 0.122 |
| TCCCTCC | 0.0498 |
| TCCGCAC | -0.154 |

| Sequence | uncleaved DNA left (log2) |
| --- | --- |
| CGTCAGA | 0.0702 |
| CTCTTCA | -0.189 |
| CGTTTGA | -0.0534 |
| TCCGAGC | -0.115 |
| AGCAGGT | 0.0497 |
| CCACTGC | 0.0873 |
| GAATGCC | -0.0795 |
| TACCGGT | 0.00349 |
| GTAGACG | 0.0525 |
| GCCTCTC | 0.0361 |
| AAATCAA | 0.152 |
| GGCACGT | -0.0134 |
| GACAAGC | 0.0204 |
| TGTTGGG | 0.0869 |
| GTTGGGG | 0.0467 |
| GTGGGCC | 0.0745 |
| GTCGGGC | 0.0115 |
| CCGATGT | -0.0357 |
| CAGCCAC | 0.0382 |
| GATCGGT | -0.076 |
